PubChem BioAssay AID686979 (National Center for Advancing Translational Sciences (NCATS), 2013)
Out of some 420,000 compounds screened, about 50,000 (12%) were called active. The inconclusive results got no clear call from the source; some entries with a clear call stand among them for comparison. Calls follow the shape of the dose curve; as a rule, active = well fitted inhibition curve with a large enough effect; inconclusive = small, poorly fitted or top-dose-only effect; inactive = flat fitted curve, though single readings scatter. No potency is given beside an inconclusive call; the fits are too rough.

Test: qHTS for Inhibitors of human tyrosyl-DNA phosphodiesterase 1 (TDP1): qHTS in cells in presence of CPT; also: nearly all actives have a fitted effect of over 55% in size
Conditions: chicken DT40 Tdp1-/-;hTDP1 cells + 20 nM CPT, ATP luminescence, 48 h; activity change, negative = growth inhibition: at 46.2 µM (top of the series)
Outline: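 Cell growth measured by CellTiter-Glo luminescence after a minimum 48 h, 37 C compound exposure with 20 nM CPT in Tdp1-knockout DT40 cells stably expressing hTDP1, seeded 400/well; qHTS titration format.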
% is scaled to controls: 0 for no effect and ±100 for the full control effect; potency is read from the fitted curve at half-maximal effect; tags tell the direction and shape of the fitted curve.

| SMILES | Potency | activity change, negative = growth inhibition |
| --- | --- | --- |
| CCOc1ccc(OCC)c(NC(=O)CN(C)S(=O)(=O)c2cccc3nsnc23)c1 | inconclusive [inhibitor, single point] | – |
| Cc1onc(-c2c(F)cccc2Cl)c1C(=O)Nc1cccc(S(=O)(=O)N2CCOCC2)c1 | – | inactive: -26% |
| Cn1c(C(=O)Nc2ccc3c(c2)OCO3)cc2sccc21 | inconclusive [inhibitor, single point] | – |
| Cc1cccc(C)c1NC(=O)COC(=O)CCC(=O)c1cccs1 | – | inactive: 9.93% |
| C/C(=N\NC(=S)NC1CCCCC1)c1cccc(Br)c1 | inconclusive [inhibitor, single point] | – |
| O=C(COc1cccc(Cl)c1)N1CCC(c2nc3ccccc3o2)CC1 | inconclusive [inhibitor, single point] | – |
| O=C(c1ccccc1F)N1CCN(Cc2cccc(Cl)c2)CC1 | – | inconclusive: -33.1% [inhibitor] |
| CCOc1ccccc1NC(=O)c1cc(=O)[nH]c2ccc(S(=O)(=O)N3CCOCC3)cc12 | – | inactive: -6.92% |
| CCN(Cc1ccccc1)c1cc2c(c3c1ccn3C)C1CCC2C1 (stereo not given) | active: 23.1 µM | – |
| COc1ccccc1-c1nnc(SC(C)C(=O)O)n1-c1ccccc1 (stereo not given) | – | inactive: 6.33% |
| CC(C)(C)c1ccc(C(O)c2ncc(-c3ccccc3Cl)[nH]2)cc1 (stereo not given) | inconclusive [inhibitor, partial curve, poor fit] | – |
| CCOC(=O)C(C)N1N=C(/C=C/c2ccc(OC)cc2)CCC1=O (stereo not given) | inconclusive [inhibitor, single point] | – |
| CNCc1nc(-c2ccc[nH]2)c2cc(Cl)ccc2n1 | active: 11.2 µM | – |
| CC(C)c1ccc(NC(=O)N2CCN(c3ccc(Cl)c(Cl)c3)CC2)cc1 | inconclusive [inhibitor, partial curve, poor fit] | – |
| O=C(C1=C[C@H](c2csc3ccccc23)C[C@H](OCCCCO)O1)N1CCN(Cc2ccccc2)CC1 | active: 25.9 µM | – |
| O=C(Nc1ccccc1C(=O)NCC1CCCO1)c1ccc(Cl)cc1 (stereo not given) | inconclusive [inhibitor, single point] | – |
| CCCCOc1ccc(/C=N/NC(=O)c2nnn(-c3nonc3N)c2CN2CCCCCC2)cc1 | inconclusive [inhibitor, single point] | – |
| NC[C@H](Cc1ccccc1)NCCc1cc(C(F)(F)F)cc(C(F)(F)F)c1 | inconclusive [inhibitor, single point] | – |
| COc1ccc(OC)c(NC(=O)CN(c2ccc(C)cc2)S(=O)(=O)c2c(C)n[nH]c2C)c1 | inconclusive [inhibitor, single point] | – |
| Cc1ccc(C(=O)CC(=O)c2ccccc2)cc1 | inconclusive [inhibitor, single point] | – |
| CC(Oc1ccc(-c2ccccc2)c(F)c1)c1ccn(S(=O)(=O)c2ccc(Cl)cc2)n1 (stereo not given) | active: 14.6 µM | – |
| Cc1nc2c(-c3ccccc3)c(C)nn2c(C)c1CCC(=O)NCCc1ccccc1 | inconclusive [inhibitor, single point] | – |
| Cc1cc(/C=N/NC(N)=S)c(C)n1-c1ccc(Cl)cc1 | active: 11.6 µM | – |
| Cc1ccc([N+](=O)[O-])cc1NC(=S)NC(=O)c1c(Cl)cnn1C | – | inactive: -2.76% |

| SMILES | Potency | activity change, negative = growth inhibition |
| --- | --- | --- |
| C=CCN(CC=C)S(=O)(=O)c1ccc(C(=O)Nc2sc3c(c2C(N)=O)CCCCC3)cc1 | active: 13 µM | – |
| Cc1ccccc1C(=O)N/N=C/c1ccccn1 | inconclusive [inhibitor, single point] | – |
| O=C(NC1CC(=O)N(c2ccc(Cl)cc2)C1)C1CCCC1 (stereo not given) | – | inactive: -4.39% |
| CCOC(=O)c1cccc(NC(=O)CCc2nc(-c3ccccc3F)no2)c1 | active: 23.1 µM | – |
| Cc1ccc(N2CCN(C(=O)c3c(C)oc4ncnc(N5CCCCC5)c34)CC2)c(C)c1 | active: 16.4 µM | – |
| O=C(NCc1cccnc1)C1CCN(c2ccc(S(=O)(=O)N3CCOCC3)cc2Cl)CC1 | inconclusive [inhibitor, single point] | – |
| CCC(COC(=O)Nc1ccccc1)NC(=O)OC(C)C (stereo not given) | inconclusive [inhibitor, single point] | – |
| COC(=O)[C@@H]1CCCN1C(=O)c1c(OC)cc(=O)n2c1CCN(Cc1ccc3cccnc3c1)CC2 | – | inactive: -0.302% |
| CC(C)COc1ccc(Br)cc1CNC(C)(C)C | inconclusive [inhibitor, single point] | – |
| Cn1cc(C[C@H](NC(=O)OC(C)(C)C)C(=O)N[C@@H](CO)Cc2ccccc2)c2ccccc21 | active: 18.4 µM | – |
| C=C(C)Cn1c(N2CCC(Cc3ccccc3)CC2)nc2c1c(=O)[nH]c(=O)n2C | inconclusive [inhibitor, partial curve] | – |
| O=S(=O)(c1cccc2cccc(Cl)c12)N1CCCC1 | – | inactive: 1.26% |
| COc1cc(C2C=C(C34CC5CC(CC(C5)C3)C4)NC(=S)N2)cc(OC)c1OC (stereo not given) | inconclusive [inhibitor, single point] | – |
| CCOC(=O)c1c(C)oc2c1cc(NS(=O)(=O)c1ccc(C)cc1)c1ccccc12 | inconclusive [inhibitor, single point] | – |
| CCOC(=O)Nc1ccc2c(c1)N(C(=O)CCN1CCN(CCO)CC1)c1ccccc1S2 | inconclusive [inhibitor, single point] | – |
| C=C1CCC[C@]2(C)C[C@H]3OC(=O)C(CNCC(C)C)[C@H]3CC12 (stereo not given in full) | inconclusive [inhibitor, single point] | – |
| CCc1nnc(NC(=O)C2Cc3ccccc3C(=O)O2)s1 (stereo not given) | – | inactive: -28% |
| CCC(C)NC(=O)c1ccc2c(c1)nc1n2CCCCC1 (stereo not given) | – | inactive: -8.13% |
| CC1Cc2ccccc2N1C(=O)c1ccc2c(c1)OCO2 (stereo not given) | inconclusive [inhibitor, partial curve] | – |
| COc1ccc(NC(=O)CSc2nc3c(oc4ccccc43)c(=O)n2-c2ccccc2)cc1OC | – | inconclusive: -33.6% [inhibitor] |
| Cc1c(NS(=O)(=O)c2cccc(C(=O)N3CCC(C(N)=O)CC3)c2)c(=O)n(-c2ccccc2)n1C | – | inactive: -5.96% |
| CC(C)(C)OC(=O)N1CCC(c2c(C(=O)NCc3ccccc3)cnn2-c2ccc(F)cc2)CC1 | active: 23.1 µM | – |
| O=c1cc(NCc2ccco2)[nH]c(=O)n1-c1ccc(Br)cc1 | – | inconclusive: -32.9% [inhibitor] |
| Cc1cc(C(=O)Nc2cccc(-c3ccc(N4CCOCC4)nn3)c2)ccc1[N+](=O)[O-] | inconclusive [inhibitor, single point] | – |

| SMILES | Potency | activity change, negative = growth inhibition |
| --- | --- | --- |
| CC(Oc1ccccc1)C(=O)N1CCN=C1SCc1ccccc1F (stereo not given) | inconclusive [inhibitor, partial curve] | – |
| Cc1nc([N+](=O)[O-])c(Br)n1CC(=O)c1ccccc1 | active: 18.4 µM | – |
| CCOCCCN1C(=O)CN(C2CCC(C)CC2)C(=O)C1c1ccc(C)cc1 (stereo not given) | inconclusive [inhibitor, full curve, poor fit] | – |
| C[C@@]12C(=O)Nc3ccc(Br)cc3C(=O)N1[C@H]1c3ccccc3OC[C@@H]1[C@@H]2c1ccccc1 | inconclusive [inhibitor, single point] | – |
| CCOC(=O)Cn1c(S(=O)(=O)Cc2cccc(F)c2)nc(-c2ccccc2)c1-c1ccccc1 | active: 8.2 µM | – |
| CCNC(=S)NNC(=O)c1cc(-c2cccc(OC)c2)nc2ccccc12 | inconclusive [inhibitor, single point] | – |
| Cc1ccc2nc(-c3ccc(SCC(=O)Nc4ccc5c(c4)OCCO5)nc3)[nH]c2c1 | inconclusive [inhibitor, single point] | – |
| CN1CCN(C(=O)c2ccc3c(c2)N(Cc2ccc(F)cc2)C(=O)c2ccccc2S3=O)CC1 (stereo not given) | inactive | – |
| CCC(=O)N1c2ccccc2C(C)(c2ccccc2)CC1(C)C (stereo not given) | – | inactive: -15.8% |
| Fc1ccccc1COc1ccc(/C=N/NC(=S)NCc2ccccc2)cc1 | active: 11.6 µM | – |
| O=C(NCCc1ccc(Cl)cc1)C1(c2ccccc2)CC1 | inconclusive [inhibitor, single point] | – |
| Cc1nnsc1C(=O)Nc1ccc(S(=O)(=O)N2CCCC(C)C2)cc1 (stereo not given) | inconclusive [inhibitor, single point] | – |
| COc1cc2c(cc1OC)C(C)N(C(=O)Cc1ccc(C(F)(F)F)cc1)CC2 (stereo not given) | inconclusive [inhibitor, single point] | – |
| Cc1cc(O)c(C(=O)/C=C/c2ccccc2)c(=O)o1 | inconclusive [inhibitor, single point] | – |
| O=C1Nc2ccccc2-n2nnnc2C1N1CCN(c2cccc(C(F)(F)F)n2)CC1 (stereo not given) | inconclusive [inhibitor, single point] | – |
| Cc1ccc(C)c(N(C(=O)c2csnn2)C(C(=O)NC2CCCC2)c2ccncc2)c1 (stereo not given) | – | inactive: 1.5% |
| COc1ccc(C(=O)N2CCN(c3ccc([N+](=O)[O-])c(NCCc4ccc(OC)c(OC)c4)c3)CC2)cc1 | active: 4.11 µM | – |
| Brc1cccc(-c2nnc(SCc3ccon3)n2-c2ccccc2)c1 | inconclusive [inhibitor, single point] | – |
| Cc1ccc(NC(=O)c2cc(S(=O)(=O)N3CCCCCC3)ccc2F)cc1F | active: 8.2 µM | – |
| CC1(C(=O)NS(=O)(=O)c2cccc(F)c2)CCN1C(=O)Cc1cccs1 (stereo not given) | – | inactive: 2.78% |
| CN(C)c1cc[n+](CC(=O)Nc2ccc([N+](=O)[O-])cc2Cl)cc1 | inconclusive [inhibitor, single point] | – |
| O=C(/C=C/c1ccccc1Cl)Nc1cccc(O)c1 | inconclusive [inhibitor, single point] | – |
